PubChem BioAssay AID360 (National Center for Advancing Translational Sciences (NCATS), 2006)
About 550 (1.1%) of roughly 48,000 compounds were called active. Not shown: some 4% with an inconclusive outcome. Cut-off read from the data, not from the text of the source: active = potency below about 15 µM; inconclusive = mostly about 16 µM to 33 µM; inactive = weaker than that. This is one part of the list.

What follows are compounds tested against Lysosomal acid glucosylceramidase (Homo sapiens) (UniProt P04062) (assay: Glucocerebrosidase). Conditions: purified enzyme, resorufin glucoside fluorescence (screen aimed at inhibitors), 20 min; series mostly up to 77 µM.
Chain of UniProt P04062 (P04062 whole entry, looked up): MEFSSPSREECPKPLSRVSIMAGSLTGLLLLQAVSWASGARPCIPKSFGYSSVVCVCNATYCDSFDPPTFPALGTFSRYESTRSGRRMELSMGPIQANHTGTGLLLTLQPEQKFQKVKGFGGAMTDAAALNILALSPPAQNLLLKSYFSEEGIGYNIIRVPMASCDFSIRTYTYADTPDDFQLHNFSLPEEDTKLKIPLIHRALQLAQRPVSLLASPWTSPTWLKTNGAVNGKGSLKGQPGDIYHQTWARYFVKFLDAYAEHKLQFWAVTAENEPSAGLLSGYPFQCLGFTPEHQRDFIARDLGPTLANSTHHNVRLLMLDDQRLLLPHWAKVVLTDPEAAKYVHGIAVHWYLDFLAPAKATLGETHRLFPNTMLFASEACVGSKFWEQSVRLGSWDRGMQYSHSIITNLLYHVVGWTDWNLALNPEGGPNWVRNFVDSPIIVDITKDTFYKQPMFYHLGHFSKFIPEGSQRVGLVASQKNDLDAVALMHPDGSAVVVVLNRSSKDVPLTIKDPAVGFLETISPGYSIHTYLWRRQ
Method in brief: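 Normal human glucocerebrosidase (0.2 nM final) was assayed with resorufin β-D-glucopyranoside (30 uM final) in 50mM citric acid/KH2PO4, 10mM sodium taurocholate, 0.01% tween-20, pH 5.9. Compounds were titrated; fluorescence (Ex 548, Em 600) read after 20 min at RT.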
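Note: the screen sought inhibitors.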
Potency is the fitted concentration of half-maximal effect.

Potency, inactive:
CCn1c(CSc2nncn2-c2ccc(OC)cc2)nc2cc(S(=O)(=O)N(C)C)ccc21 > 76.9 µM
O=C(NCc1ccc(F)cc1)C(c1cccs1)N(C(=O)c1csnn1)C1CC1 (stereo unspecified) > 76.9 µM
Cc1cccc2[nH]c3c(=O)n(CCN4CCNCC4)cnc3c12 > 76.9 µM
CCn1c(Cc2ccccc2)nnc1SCC(=O)Nc1nc2ccccc2s1 > 76.9 µM
CCSc1ccccc1C(=O)NCc1ccc2c(c1)OCO2 > 76.9 µM
O=C(CSc1nc2ccccc2o1)N1CCN(c2ccc(Cl)cc2)CC1 > 76.9 µM
Cc1ccc(C)c(S(=O)(=O)NC(CC(C)C)C(=O)O)c1 (stereo unspecified) > 76.9 µM
COC(=O)n1c(SC)nc2ccccc21 > 76.9 µM
CCCCN(CC)CCNc1c(N2CCN(C(=O)OCC)CC2)c(=O)c1=O > 76.9 µM
O=C(Nc1nccs1)c1nc(-c2ccccc2)n(-c2ccccc2)n1 > 76.9 µM
COc1ccc(CNC(=O)C(C#N)c2nc3ccccc3nc2N2CCCC2)cc1 (stereo unspecified) > 76.9 µM
Cc1cccn2c(=O)c3cc(C(=O)N4COCC4(C)C)n(C)c3nc12 > 76.9 µM
Cc1nnc(SCC(=O)N2CCc3ccccc32)n1-c1ccccc1 > 76.9 µM
COc1cccc(C(=O)CN2CCC(NC(=O)NC3CCCCC3)CC2)c1 > 76.9 µM
CCOc1ncccc1C(=O)OCc1cn2cc(Cl)ccc2n1 > 76.9 µM
O=C(NCc1ccco1)c1cccs1 > 76.9 µM
CC(C)c1nc2ccccc2c2nnc(SCC(=O)NCc3ccco3)n12 > 76.9 µM
Brc1cccc(-c2nnc3n2CCCCC3)c1 > 76.9 µM
CCOC(=O)C1CCCN(c2nc3ccccc3nc2C(C#N)C(=O)OCC)C1 (stereo unspecified) > 76.9 µM
CC(Sc1nnc(-c2ccc(O)cc2)o1)C(=O)Nc1cccc2ccccc12 (stereo unspecified) > 76.9 µM
O=C(CCCCn1c(=S)[nH]c2ccsc2c1=O)NCc1ccco1
CC(C)CC1NC(=O)N(CC(=O)c2ccc3c(c2)OCCO3)C1=O (stereo unspecified) > 76.9 µM
O=C(CN1C(=O)C2CC=CCC2C1=O)Nc1ccc(S(=O)(=O)NC2=NCCCCC2)cc1 (stereo unspecified) > 76.9 µM
Cc1ccc(C)c(C(=O)CSc2nnnn2-c2cccnc2)c1 > 76.9 µM
COc1cc(C2c3c(oc4ccccc4c3=O)C(=O)N2CCN2CCOCC2)cc(OC)c1OC (stereo unspecified) > 76.9 µM
COc1ccc2occ(NC(C)=O)c2c1 > 76.9 µM
CN(C)C(=O)Cn1nc(-c2ccccc2)c2ccccc2c1=O > 76.9 µM
COCCn1c(=O)[nH]c2cc(C(=O)NCc3cccnc3)ccc2c1=O > 76.9 µM
CC(C)c1cc(C(=O)Nc2cc(Cl)ccc2O)no1 > 76.9 µM
COC(=O)Cc1[nH]nc2c1C1(C(=O)N(Cc3ccc(Cl)cc3)c3ccccc31)C(C#N)=C(N)O2 (stereo unspecified) > 76.9 µM
CCCCOC(=O)n1c(=O)oc2cc(S(=O)(=O)N3CCCCC3)ccc21 > 76.9 µM
O=C1CN(C(=O)c2ccccc2F)c2ccccc2N1 > 76.9 µM
COc1ccc(CCNC(=O)Cn2cnc3c(nnn3Cc3ccccc3F)c2=O)cc1OC > 76.9 µM
Fc1ccc(-c2nnc(NC3=NCCCCC3)o2)cc1 > 76.9 µM
O=C(O)C1C(c2ccccc2)C(C(=O)OCCCO)C1c1ccccc1 (stereo unspecified) > 76.9 µM
Cc1cc(-n2c(C)cc(C(=O)CSc3nnc4sc5ccccc5n34)c2C)no1 > 76.9 µM
CCOC(=O)CCCCC(=O)c1[nH]c(=O)[nH]c1CSc1nc(-c2ccccc2)c(C#N)c(=O)[nH]1 > 76.9 µM
Cc1cc(C)n(-c2cc(-c3ccccc3)nc(C)n2)n1 > 76.9 µM
O=C(CCSCCc1ccncc1)NCCCN1CCOCC1 > 76.9 µM
COc1cccc(CNC(=O)CCS(=O)(=O)c2cccc3nonc23)c1 > 76.9 µM
Cc1cccc(N(CC(=O)NC2CCCCC2)C(=O)CCC(=O)Nc2ccccn2)c1 > 76.9 µM
O=C(O)c1cnn2c1NC(c1ccc(F)cc1)CC2C(F)(F)F (stereo unspecified) > 76.9 µM
CC(C)OCCCNC(=O)Cn1nc(-c2ccccc2)ccc1=O > 76.9 µM
CCC(CC)C(=O)Nc1cc(C)cc(C)c1 > 76.9 µM
COc1ccc(NC(=O)C(C)N(c2ccc(C)cc2)S(C)(=O)=O)c(OC)c1 (stereo unspecified) > 76.9 µM
COc1ccc(NC(=O)CCCn2c(=O)[nH]c3ccccc3c2=O)cc1 > 76.9 µM
OCn1ncn(-c2ccccc2)c1=S > 76.9 µM
COc1ccc(CN2C(=O)NC3(CCCCCC3)C2=O)cc1F > 76.9 µM
CCN(CC)CCN(Cc1cc2cc3c(cc2[nH]c1=O)OCCO3)C(=O)NC1CCCCC1 > 76.9 µM
Cc1ccc(S(=O)(=O)Cn2cnnn2)cc1 > 76.9 µM
Cc1ccc2nc(Nc3nc(=O)c4ccccc4n3C)nc(C)c2c1 > 76.9 µM
O=C(CN1CCC(NC(=O)c2ccccc2)CC1)NCc1ccccc1F > 76.9 µM
Cc1n[nH]c(C)c1S(=O)(=O)N1CCCC(C(=O)N2CCc3ccccc32)C1 (stereo unspecified) > 76.9 µM
N#C/C(=C1\CCCN1)c1nc(-c2ccccc2)cs1
CCOC(=O)c1ccc(N2C(=O)C(C)=C(C)C2=O)cc1 > 76.9 µM
O=C(Nc1ccc(Cl)cc1)N(Cc1cccnc1)Cc1ccco1 > 76.9 µM
CCOC(=O)c1cc2occc2n1CC(=O)N1CCCc2ccccc21 > 76.9 µM
CCOC(=O)C1=C(N)n2c(s/c(=C\c3cccs3)c2=O)=C(C(=O)OCC)C1c1cccs1 (stereo unspecified) > 76.9 µM
CCCOc1ccc(C2/C(=C(\O)c3c(C)[nH]c(C(=O)OC)c3C)C(=O)C(=O)N2CCN(C)C)cc1 (stereo unspecified) > 76.9 µM
O=C(CCCn1c(=S)[nH]c2cc3c(cc2c1=O)OCO3)N1CCN(c2ccc(Cl)cc2)CC1
Cc1nc(NCc2ccccn2)c2ccccc2n1 > 76.9 µM
O=C(O)c1c(F)c(F)cc2ccccc12 > 76.9 µM
O=C(C1CCCO1)N1CCc2ccccc21 (stereo unspecified) > 76.9 µM
COc1ccccc1N1CCN(C(=O)c2ccc(S(=O)(=O)N3CCCC3)cc2)CC1 > 76.9 µM
Cn1c(SCC(=O)NCCN2C(=O)CSC2=O)nc2ccccc2c1=O > 76.9 µM
CCN(CC)CCOC(=O)c1cccc(OC)c1 > 76.9 µM
O=C(COC(=O)c1cccc(S(=O)(=O)N2CCc3ccccc32)c1)NC1CCS(=O)(=O)C1 (stereo unspecified) > 76.9 µM
Clc1cccc(Cl)c1Cn1nnc(-c2cccs2)n1 > 76.9 µM
COc1ccccc1C1C(C(N)=O)=C(C)Nc2ncnn21 (stereo unspecified) > 76.9 µM
CC(=O)c1c(C)nc(C)nc1NC(=O)Cc1ccccc1 > 76.9 µM
CCn1c(=O)cc(SCC(=O)N2CCC(C)CC2)c2ccccc21 > 76.9 µM
CC(C)C1Oc2ccccc2N(CC(=O)NCCCN2C(C)CCCC2C)C1=O (stereo unspecified) > 76.9 µM
COc1ccc(N2CC(O)=C(c3nc4ccccc4s3)C2=N)cc1 > 76.9 µM
CCOc1ccc(-n2cc(C(=O)Nc3cccc(C)n3)c3cc(OC)c(OC)cc3c2=O)cc1 > 76.9 µM
COc1cccc(-c2nc(-c3ccc(NC(=O)c4cccnc4)cc3)no2)c1 > 76.9 µM
CC1(C)CC(=O)C(C2(O)C(=O)N(Cc3ccccc3)c3ccccc32)CO1 (stereo unspecified) > 76.9 µM
C/C(N)=C(/C#N)C(=O)COC(=O)c1cc(C)n(-c2ccc(F)cc2)c1C > 76.9 µM
CC1(C)CC(=O)C=C(NCc2ccco2)C1 > 76.9 µM
O=C(O)CCc1ccc(-c2ccccc2)n1-c1cccc(O)c1 > 76.9 µM
O=C1OCCC1S(=O)(=O)c1ccc2ccccc2c1 (stereo unspecified) > 76.9 µM
COC(=O)c1[nH]c2cc(C)ccc2c1NC(=O)CN1CCCc2ccccc21 > 76.9 µM
COc1ccc(S(=O)(=O)N(Cc2ccc(OC)c(OC)c2)Cc2ccco2)cc1 > 76.9 µM
Cc1cc(NC(=O)Nc2cccs2)no1 > 76.9 µM
CCOC(=O)C1CCN(c2cc(=O)n(C3CCCCC3)c(=O)[nH]2)CC1 > 76.9 µM
Cc1ccc2nc3c(cc(C(=O)NCC4CCCO4)n3C)c(=O)n2c1 (stereo unspecified) > 76.9 µM
Cc1ccc(-c2nc3ccccc3[nH]2)cc1NC(=O)c1ccco1 > 76.9 µM
COc1ccc(OCc2nnc(SCC(=O)NCc3ccco3)o2)cc1 > 76.9 µM
CCCCN(C)CCCNC(=O)c1cccc(N2CCCC2=O)c1 > 76.9 µM
Cc1ccc(S(=O)(=O)N2CCN(CCO)CC2)cc1-c1nnc2c3ccccc3c(C)nn12 > 76.9 µM
C#CC(C)(C)NC(=O)c1ccccc1OC > 76.9 µM
CCOc1ccc(S(=O)(=O)Nc2ccccc2C(=O)Nc2ccccc2N2CCOCC2)cc1 > 76.9 µM
